In patent publication US11685745B2, “Substituted benzoxazole and benzofuran compounds as PDE7 inhibitors” (Dart NeuroScience, LLC, priority 2017, dated 2023):

Molecular target: N-terminal truncated recombinant human PDE7B enzyme (Homo sapiens (Human), UniProt Q9NP56)
Test: biochemical

First: O=C1Nc2c(Cl)cc3nc(CN4CCOCC4)oc3c2C2(CCCCC2)N1 [Example 33, 5-Chloro-2-(morpholin-4-ylmethyl)-7,8-dihydro-6H-spiro[[1,3]oxazolo[5,4-f]quinazoline-9,1′-cyclohexane]-7-one]
Second: O=C1Nc2c(Cl)cc3nc(CN4CCOC5(CCCC5)C4)oc3c2C2(CCCCC2)N1 [Example 103, 5-Chloro-2-{6-oxa-9-azaspiro[4.5]decan-9-ylmethyl}-7,8-dihydro-6H-spiro[[1,3]oxazolo[5,4-f]quinazoline-9,1′-cyclohexane]-7-one]
The IC50 of the first is higher: 100 to 1000 nM for the first, 10 to 100 nM for the second. The second is the more potent here.

Compared with CN(C)CCCN(C)C(=O)c1cc2cc(Cl)c3c(c2o1)C1(CCCCC1)NC(=O)N3 [Example 264, 5′-Chloro-N-[3-(dimethylamino)propyl]-N-methyl-7′-oxo-7′,8′-dihydro-6′H-spiro[cyclohexane-1,9′-furo[2,3-f]quinazoline]-2′-carboxamide], CCCN(C)C(=O)c1cc2cc(Cl)c3c(c2o1)C1(CCCCC1)NC(=O)N3 [Example 397, 5′-Chloro-N-methyl-7′-oxo-N-propyl-7′,8′-dihydro-6′H-spiro[cyclohexane-1,9′-furo[2,3-f]quinazoline]-2′-carboxamide] is lower in IC50: 100 to 1000 nM for the first, 10 to 100 nM for the second.

Cn1ccc(CNCc2nc3cc(Cl)c4c(c3o2)C2(CCCCC2)NC(=O)N4)n1 [Example 174, 5-Chloro-2-({[(1-methyl-1H-pyrazol-3-yl)methyl]amino}methyl)-7,8-dihydro-6H-spiro[[1,3]oxazolo[5,4-f]quinazoline-9,1′-cyclohexane]-7-one] and COCc1nc2cc(Cl)c3c(c2o1)C1(CCCCC1)NC(=O)N3 [Example 19, 5′-Chloro-2′-(methoxymethyl)-6′H-spiro[cyclohexane-1,9′-oxazolo[5,4-f]quinazolin]-7′(8′H)-one] fall in the same range of IC50: 10 to 100 nM for the first, 10 to 100 nM for the second.

O=C1Nc2c(Cl)cc3nc(CNC4CCOCC4)oc3c2C2(CCCCC2)N1 [Example 145, 5-Chloro-2-{[(oxan-4-yl)amino]methyl}-7,8-dihydro-6H-spiro[[1,3]oxazolo[5,4-f]quinazoline-9,1′-cyclohexane]-7-one] and O=C1Nc2c(Cl)cc3cc(CN[C@@H]4CCOC4)oc3c2C2(CCCCC2)N1 [Example 578, 5′-Chloro-2′-({[(3R)-oxolan-3-yl]amino}methyl)-7′,8′-dihydro-6′H-spiro[cyclohexane-1,9′-furo[2,3-f]quinazoline]-7′-one] fall in the same range of IC50: 10 to 100 nM for the first, 10 to 100 nM for the second.

O=C1Nc2c(Cl)cc3cc(C(=O)N4CCCC4c4ccccn4)oc3c2C2(CCCCC2)N1 (stereo not drawn) [Example 291, 5′-Chloro-2′-[2-(pyridin-2-yl)pyrrolidine-1-carbonyl]-7′,8′-dihydro-6′H-spiro[cyclohexane-1,9′-furo[2,3-f]quinazoline]-7′-one] and CN(Cc1ccccn1)C(=O)c1cc2cc(Cl)c3c(c2o1)C1(CCCCC1)NC(=O)N3 [Example 419, 5′-Chloro-N-methyl-7′-oxo-N-(pyridin-2-ylmethyl)-7′,8′-dihydro-6′H-spiro[cyclohexane-1,9′-furo[2,3-f]quinazoline]-2′-carboxamide] fall in the same range of IC50: 10 to 100 nM for the first, 10 to 100 nM for the second.

CCN(C(=O)c1cc2cc(Cl)c3c(c2o1)C1(CCCCC1)NC(=O)N3)C(C)C [Example 245, 5′-Chloro-N-ethyl-7′-oxo-N-(propan-2-yl)-7′,8′-dihydro-6′H-spiro[cyclohexane-1,9′-furo[2,3-f]quinazoline]-2′-carboxamide] and CCCNC(=O)c1cc2cc(Cl)c3c(c2o1)C1(CCCCC1)NC(=O)N3 [Example 404, 5′-Chloro-7′-oxo-N-propyl-7′,8′-dihydro-6′H-spiro[cyclohexane-1,9′-furo[2,3-f]quinazoline]-2′-carboxamide] fall in the same range of IC50: 10 to 100 nM for the first, 10 to 100 nM for the second.

First: O=C1Nc2c(Cl)cc3nc(CN4CCN(CC(F)F)CC4)oc3c2C2(CCCCC2)N1 [Example 159, 5-Chloro-2-{[4-(2,2-difluoroethyl)piperazin-1-yl]methyl}-7,8-dihydro-6H-spiro[[1,3]oxazolo[5,4-f]quinazoline-9,1′-cyclohexane]-7-one]
Second: CO[C@H]1CCCN(Cc2nc3cc(Cl)c4c(c3o2)C2(CCCCC2)NC(=O)N4)C1 [Example 118, 5-Chloro-2-{[(3S)-3-methoxypiperidin-1-yl]methyl}-7,8-dihydro-6H-spiro[[1,3]oxazolo[5,4-f]quinazoline-9,1′-cyclohexane]-7-one]
The IC50 of the first is higher: 100 to 1000 nM for the first, 10 to 100 nM for the second.

First: COC1CN(Cc2nc3cc(F)c4c(c3o2)C2(CCCCC2)NC(=O)N4)C1 [Example 8, 5′-Fluoro-2′-((3-methoxyazetidin-1-yl)methyl)-6′H-spiro[cyclohexane-1,9′-oxazolo[5,4-f]quinazolin]-7′(8′H)-one]
Second: CO[C@@H]1CCCN(Cc2nc3cc(Cl)c4c(c3o2)C2(CCCCC2)NC(=O)N4)C1 [Example 117, 5-Chloro-2-{[(3R)-3-methoxypiperidin-1-yl]methyl}-7,8-dihydro-6H-spiro[[1,3]oxazolo[5,4-f]quinazoline-9,1′-cyclohexane]-7-one]
The IC50 of the first is higher: 100 to 1000 nM for the first, 10 to 100 nM for the second.

First: CN(Cc1cccnc1)Cc1cc2cc(Cl)c3c(c2o1)C1(CCCCC1)NC(=O)N3 [Example 514, 5′-Chloro-2′-{[methyl(pyridin-3-ylmethyl)amino]methyl}-7′,8′-dihydro-6′H-spiro[cyclohexane-1,9′-furo[2,3-f]quinazoline]-7′-one]
Second: CCn1cnnc1CN(C)Cc1cc2cc(Cl)c3c(c2o1)C1(CCCCC1)NC(=O)N3 [Example 504, 5′-Chloro-2′-({[(4-ethyl-4H-1,2,4-triazol-3-yl)methyl](methyl)amino}methyl)-7′,8′-dihydro-6′H-spiro[cyclohexane-1,9′-furo[2,3-f]quinazoline]-7′-one]
The IC50 of the first is higher: 100 to 1000 nM for the first, 10 to 100 nM for the second. The second is the more potent here.

First: O=C1Nc2c(Cl)cc3cc(C(=O)NCCc4ccsc4)oc3c2C2(CCCCC2)N1 [Example 395, 5′-Chloro-7′-oxo-N-[2-(thiophen-3-yl)ethyl]-7′,8′-dihydro-6′H-spiro[cyclohexane-1,9′-furo[2,3-f]quinazoline]-2′-carboxamide]
Second: O=C1Nc2c(Cl)cc3cc(C(=O)NCCCn4ccnc4)oc3c2C2(CCCCC2)N1 [Example 261, 5′-Chloro-N-[3-(1H-imidazol-1-yl)propyl]-7′-oxo-7′,8′-dihydro-6′H-spiro[cyclohexane-1,9′-furo[2,3-f]quinazoline]-2′-carboxamide]
The IC50 of the first is higher: 100 to 1000 nM for the first, 10 to 100 nM for the second. The second is the more potent here.

CC(C)(O)CNC(=O)c1cc2cc(Cl)c3c(c2o1)C1(CCCCC1)NC(=O)N3 [Example 331, 5′-Chloro-N-(2-hydroxy-2-methylpropyl)-7′-oxo-7′,8′-dihydro-6′H-spiro[cyclohexane-1,9′-furo[2,3-f]quinazoline]-2′-carboxamide] and CCN(CCC#N)C(=O)c1cc2cc(Cl)c3c(c2o1)C1(CCCCC1)NC(=O)N3 [Example 418, 5′-Chloro-N-(2-cyanoethyl)-N-ethyl-7′-oxo-7′,8′-dihydro-6′H-spiro[cyclohexane-1,9′-furo[2,3-f]quinazoline]-2′-carboxamide] fall in the same range of IC50: 10 to 100 nM for the first, 10 to 100 nM for the second.

O=C1Nc2c(Cl)cc3cc(C(=O)N4CCN(CC(F)(F)F)CC4)oc3c2C2(CCCCC2)N1 [Example 238, 5′-Chloro-2′-[4-(2,2,2-trifluoroethyl)piperazine-1-carbonyl]-7′,8′-dihydro-6′H-spiro[cyclohexane-1,9′-furo[2,3-f]quinazoline]-7′-one] and O=C1Nc2c(Cl)cc3cc(C(=O)N4CCCC4)oc3c2C2(CCCCC2)N1 [Example 236, 5′-Chloro-2′-(pyrrolidine-1-carbonyl)-7′,8′-dihydro-6′H-spiro[cyclohexane-1,9′-furo[2,3-f]quinazoline]-7′-one] fall in the same range of IC50: 10 to 100 nM for the first, 10 to 100 nM for the second.

First: O=C1Nc2c(Cl)cc3cc(C(=O)N4CCC5(CC4)CC5)oc3c2C2(CCCCC2)N1 [Example 346, 2′-{6-Azaspiro[2.5]octane-6-carbonyl}-5′-chloro-7′,8′-dihydro-6′H-spiro[cyclohexane-1,9′-furo[2,3-f]quinazoline]-7′-one]
Second: O=C1Nc2c(Cl)cc3cc(C(=O)N4CCN(C5CCCCC5)CC4)oc3c2C2(CCCCC2)N1 [Example 440, 5′-Chloro-2′-(4-cyclohexylpiperazine-1-carbonyl)-7′,8′-dihydro-6′H-spiro[cyclohexane-1,9′-furo[2,3-f]quinazoline]-7′-one]
The IC50 of the first is higher: 100 to 1000 nM for the first, 10 to 100 nM for the second.

First: O=C1Nc2c(Cl)cc3cc(CNC4CCCNC4)oc3c2C2(CCCCC2)N1 (stereo not drawn) [Example 571, 5′-Chloro-2′-{[(piperidin-3-yl)amino]methyl}-7′,8′-dihydro-6′H-spiro[cyclohexane-1,9′-furo[2,3-f]quinazoline]-7′-one]
Second: O=C1Nc2c(Cl)cc3cc(CNC4CCOCC4F)oc3c2C2(CCCCC2)N1 (stereo not drawn) [Example 577, 5′-Chloro-2′-{[(3-fluorooxan-4-yl)amino]methyl}-7′,8′-dihydro-6′H-spiro[cyclohexane-1,9′-furo[2,3-f]quinazoline]-7′-one]
The IC50 of the first is higher: 100 to 1000 nM for the first, 10 to 100 nM for the second.

Compared with O=C1Nc2c(Cl)cc3nc(C4CC4)oc3c2C2(CCCCC2)N1 [Example 18, 5′-Chloro-2′-cyclopropyl-6′H-spiro[cyclohexane-1,9′-oxazolo[5,4-f]quinazolin]-7′(8′H)-one], O=C1Nc2c(Cl)cc3nc(C(=O)O)oc3c2C2(CCCCC2)N1 [Example 2, 5′-Chloro-7′-oxo-7′,8′-dihydro-6′H-spiro[cyclohexane-1,9′-oxazolo[5,4-f]quinazoline]-2′-carboxylic acid] is lower in IC50: 100 to 1000 nM for the first, 10 to 100 nM for the second.

CN(Cc1cc(C2CC2)[nH]n1)C(=O)c1cc2cc(Cl)c3c(c2o1)C1(CCCCC1)NC(=O)N3 [Example 299, 5′-Chloro-N-[(5-cyclopropyl-1H-pyrazol-3-yl)methyl]-N-methyl-7′-oxo-7′,8′-dihydro-6′H-spiro[cyclohexane-1,9′-furo[2,3-f]quinazoline]-2′-carboxamide] and O=C1Nc2c(Cl)cc3cc(C(=O)N(CCO)C4CCCCC4)oc3c2C2(CCCCC2)N1 [Example 465, 5′-Chloro-N-cyclohexyl-N-(2-hydroxyethyl)-7′-oxo-7′,8′-dihydro-6′H-spiro[cyclohexane-1,9′-furo[2,3-f]quinazoline]-2′-carboxamide] fall in the same range of IC50: 10 to 100 nM for the first, 10 to 100 nM for the second.

Work on COc1ccccc1[C@H]1[C@@H]2CN(C(=O)c3cc4cc(Cl)c5c(c4o3)C3(CCCCC3)NC(=O)N5)C[C@@H]21 [Example 392, 5′-Chloro-2′-[(1R,5S,6S)-6-(2-methoxyphenyl)-3-azabicyclo[3.1.0]hexane-3-carbonyl]-7′,8′-dihydro-6′H-spiro[cyclohexane-1,9′-furo[2,3-f]quinazoline]-7′-one] yielded an IC50 of 100 to 1000 nM.
